Among all 44,000 compounds or so, about 340 (0.77%) were called active. Roughly 5% stayed inconclusive and do not appear here. Calls come from the whole dose curve; as a rule, active = well fitted inhibition curve with a large enough effect; inconclusive = small, poorly fitted or top-dose-only effect; inactive = flat fitted curve, though single readings scatter. Some of the results follow.
Potency is the fitted concentration of half-maximal effect.

The nature of the assay: Acumen qHTS Assay for Inhibitors of the mTORC1 Signaling Pathway in MEF (Tsc2-/-, p53-/-) Cells: Sytravon.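 For activity change, negative = inhibition: plate controls were DMSO for no effect and rapamycin for full effect.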 Note: nearly all actives have a fitted effect of over 50% in size. As to conditions: phospho-rpS6 immunofluorescence/PI, 24 h; series mostly up to 38.3 µM; activity change, negative = inhibition: at the top concentration. The gist of the method: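 Plate MEFs (Tsc2-/-, p53-/-, empty vector) in DMEM/10% FBS; after 24 h add compound, incubate 24 h at 37 degree Celsius; fix in PFA/TX-100, block, stain phospho-rpS6 and 10 uM PI; scan at 488 nm; report % positive cells.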
Consider `Cc1ccc(Cn2c(C(=O)O)c(CNC3CCCCCC3)c3ccc(C)cc32)cc1`, for which the “activity change, negative = inhibition” value is inactive: 0.955%.

Turning to `Cc1ccc(NC(=O)Cn2c(=O)n(CCC(=O)N3CCc4ccccc4C3)c(=O)c3ccccc32)cc1`, the “activity change, negative = inhibition” value is inactive: 3.44%.

Consider `Cc1cc(C)cc(S(=O)(=O)Nc2cccc(-c3ccc(N4CCOCC4)nn3)c2)c1`, for which the “activity change, negative = inhibition” value is inactive: 0.815%.

For the compound `CC(=O)c1ccc(NC(=O)Cn2c(=O)c3cccn3c3ccccc32)cc1`, the “activity change, negative = inhibition” value is inactive: 10.4%.

Take `Cc1oc2ncn(CC(C)C)c(=O)c2c1C(=O)Nc1cc(F)ccc1F`: the “activity change, negative = inhibition” value was inactive: 2.3%.

As to `CC(C)(C)C(=O)NCCc1nc2ccccc2n1CCCCOc1ccc(Cl)cc1`, the “activity change, negative = inhibition” value was inactive: -17.6%.

In the case of `COc1ccc(-n2nc3c(N4CCCC(C(=O)NCc5cccc(F)c5)C4)nnc(C)c3c2C)cc1` (configuration not stated), the “activity change, negative = inhibition” value was inactive: -20.5%.

In the case of `Cc1ccc(C)c(OCCn2cc(C(=O)c3ccco3)c3ccccc32)c1`, the “activity change, negative = inhibition” value was inactive: -14.4%.

Take `CCn1c(CNC(=O)C23CC4CC(CC(C4)C2)C3)nnc1SCC(=O)Nc1ccccc1`: the “activity change, negative = inhibition” value is inactive: 1.64%.

As to `COc1cccc(CNC(=O)c2cc3c(s2)-c2c(C)cccc2OC3)c1`, the “activity change, negative = inhibition” value is inactive: 0.425%.

As to `COc1ccc(-c2nc(CNS(=O)(=O)c3ccccc3)cs2)cc1`, the “activity change, negative = inhibition” value is inactive: -0.784%.

As to `O=C(Oc1ccc(F)cc1)c1nc(SCc2ccccc2F)ncc1Cl`, the “activity change, negative = inhibition” value is inactive: -2.85%.

`Cc1oc2ncn(C)c(=O)c2c1C(=O)N1CCN(c2ccccc2)CC1`: the “activity change, negative = inhibition” value was inactive: 6.42%.

Consider `COc1ccccc1C(=O)NC1(C(F)(F)F)C(=O)Nc2c1c(=O)[nH]c(=O)n2-c1ccccc1` (configuration not stated), for which the “activity change, negative = inhibition” value was inactive: 3.74%.

On to `Cn1c(=O)c2c([nH]c(=O)n2Cc2ccc(Cl)cc2Cl)n(C)c1=O`, for which the “activity change, negative = inhibition” value was inactive: 6.64%.

On to `Cc1ccc2c(c1)-c1nc(-c3ccc4c(c3)NC(=O)CO4)cc(-c3ccc(Cl)cc3)c1CO2`, for which the “activity change, negative = inhibition” value is inactive: 2.79%.

For the compound `Cc1ccc2nc(N3CCN(C(=O)C4CC4)CC3)sc2c1`, the “activity change, negative = inhibition” value is inactive: 2.5%.

`CC1CCCN(CCCNC(=O)c2cn(C)c3ccc(S(=O)(=O)N(C)C4CCCCC4)cc3c2=O)C1` (configuration not stated): the “activity change, negative = inhibition” value was inactive: -3.91%.

In the case of `Cc1ccc(NS(=O)(=O)c2ccc3nc(-c4ccccc4)[nH]c3c2)c(Cl)c1`, the “activity change, negative = inhibition” value was inactive: 6.51%.

Take `CCOC(=O)c1ccccc1NC(=O)c1cc2c(=O)oc3ccc(C)cc3c2s1`: the “activity change, negative = inhibition” value was inactive: -0.575%.

Consider `CCCc1c(C)c2ccc(O)c(CN3CCN(c4ccc(F)cc4)CC3)c2oc1=O`, for which the “activity change, negative = inhibition” value is inactive: 2.3%.

For `COc1ccccc1CNC(=O)CN1C(=O)CSc2ccc(S(=O)(=O)N3CCCCC3)cc21`, the “activity change, negative = inhibition” value is inactive: -8.95%.

For the compound `COC(=O)c1c(Oc2ccc(C(C)=O)cc2)nnc(-c2ccccc2)c1-c1ccccc1`, the “activity change, negative = inhibition” value was inactive: 2.46%.

With `CCN(c1ccccc1)c1ncnc2c1cnn2-c1ccc(C)cc1C`, the “activity change, negative = inhibition” value was inactive: -3.4%.

For the compound `Cc1ccc(NC(=O)Cn2cc3c(n2)CCCCC3)cc1`, the “activity change, negative = inhibition” value is inactive: -11.7%.

As to `Cc1ccc(S(=O)(=O)Nc2cccc(-c3cn4cccc(C)c4n3)c2)cc1`, the “activity change, negative = inhibition” value is inactive: 1.83%.

In the case of `Cc1cccc(N2CCN(C(=O)c3c(C)oc4ncnc(N5CCCCC5)c34)CC2)c1C`, the “activity change, negative = inhibition” value was inactive: 0.484%.

Consider `Cc1ccc(C)c(Nc2nc3c(S(=O)(=O)c4ccc(C(C)C)cc4)nnn3c3ccsc23)c1`, for which the “activity change, negative = inhibition” value was inactive: -2.06%.

As to `CCc1ccc(C2CC(=O)Nc3cc4c(cc32)OCO4)cc1` (configuration not stated), the “activity change, negative = inhibition” value is inactive: -1.04%.

For the compound `CCOC(=O)c1noc2nc(C)n(CC(=O)Nc3ccccc3F)c(=O)c12`, the “activity change, negative = inhibition” value was inactive: -1.72%.

Regarding `CC(C)CN(CCCNC(=O)CN1C(=O)CSc2ccc(S(=O)(=O)N3CCOCC3)cc21)CC(C)C`, the “activity change, negative = inhibition” value was inactive: 12.8%.

Turning to `CCOc1ccc(CNC(=O)CSc2nnc(C)c3c(C)n(-c4ccccc4)nc23)cc1`, the “activity change, negative = inhibition” value was inactive: -0.0811%.

As to `Cc1ccccc1CCNC(=O)c1ccc2c(c1)c(C)c(C)n2Cc1ccccc1`, the “activity change, negative = inhibition” value was inactive: -2.17%.

On to `CCc1ccccc1N1C(=O)N(Cc2ccccc2C)c2ccccc2S1(=O)=O`, for which the “activity change, negative = inhibition” value was inactive: 2.37%.

`COc1ccc(S(=O)(=O)n2ccnc2)cc1C(C)(C)C`: the “activity change, negative = inhibition” value was inactive: 0.767%.

As to `COc1ccc(OC)c2sc(N3CCN(C(=O)C4CC4)CC3)nc12`, the “activity change, negative = inhibition” value was inactive: -11.4%.

On to `COc1ccc(OC)c(-n2cnc3cc(C(=O)NC4CCCCCC4)ccc32)c1`, for which the “activity change, negative = inhibition” value is inactive: -0.764%.

As to `COc1ccccc1NC(=O)c1cnc(SCC(=O)N2CCCc3ccccc32)n(C)c1=O`, the “activity change, negative = inhibition” value was inactive: 1.57%.

Regarding `COc1ccc(-c2cc(C)nc3c(-c4ccc(OC)c(OC)c4)c(C)nn23)cc1`, the “activity change, negative = inhibition” value is inactive: -1.42%.

Consider `COc1ccc(N2CCN(C(=O)c3cc4ccc5cccnc5c4[nH]3)CC2)cc1`, for which the “activity change, negative = inhibition” value was inactive: 2.41%.

Turning to `CSc1ccc(-c2nc3ccc(C)cn3c2Nc2ccccc2C)cc1`, the “activity change, negative = inhibition” value was inactive: -6.4%.

`Cc1cccc(-c2nnn3c2nc(NCCc2ccc(S(N)(=O)=O)cc2)c2cc(Cl)ccc23)c1`: the “activity change, negative = inhibition” value is inactive: 2.59%.

Take `CS(=O)(=O)N(CC(=O)NCCc1ccccc1)c1cc(C(F)(F)F)ccc1Cl`: the Potency is active: 6.56 µM.

As for `CCCCCn1c(=O)[nH]c2cc(C(=O)N3CCN(c4cccc(C)c4)C(C)C3)ccc2c1=O` (configuration not stated), the “activity change, negative = inhibition” value was inactive: 1.46%.

As for `Cc1cccc(Oc2nc3c(c(=O)n(C)c(=O)n3C)n2C)c1`, the “activity change, negative = inhibition” value is inactive: 7%.

As for `O=C(NCC12CC3CC(CC(C3)C1)C2)c1cc2nc(-c3ccccc3)cc(C(F)(F)F)n2n1`, the “activity change, negative = inhibition” value was inactive: 4.14%.

Regarding `O=C1CCCc2cc(S(=O)(=O)NCC3CCC(C(=O)Nc4ccccc4F)CC3)ccc2N1` (configuration not stated), the “activity change, negative = inhibition” value is inactive: -0.129%.

Values taken from PubChem BioAssay AID493208 (National Center for Advancing Translational Sciences (NCATS), 2011).
